Experimental data from patent KR20220081857A (dated 2022).
Read-outs that look alike come from different tables or passages of the source.

T1: 인간 OX40L 단백질 (OX40L-his; ACROBiosystems Cat# OXL-H52Q8) (human, UniProt P23510 51-183)
T1 sequence: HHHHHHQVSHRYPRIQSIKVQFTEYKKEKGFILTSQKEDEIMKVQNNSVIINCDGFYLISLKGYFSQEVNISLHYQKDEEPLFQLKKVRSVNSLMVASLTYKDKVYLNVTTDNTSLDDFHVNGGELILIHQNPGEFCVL


Key:
Experiment in all cases: cell-based or functional assay
[1] = target: T2, 인간 TNFα (ACROBiosystems TNF-H5228) (human, UniProt P01375 partial chain)
[2] = target: T2, 인간 TNFα (ACROBiosystems TNF-H5228); remark: listed apart in the source
[3] = target: T1, 인간 OX40L 단백질 (OX40L-his; ACROBiosystems …)

T2 sequence (P01375 77-233 limits assumed): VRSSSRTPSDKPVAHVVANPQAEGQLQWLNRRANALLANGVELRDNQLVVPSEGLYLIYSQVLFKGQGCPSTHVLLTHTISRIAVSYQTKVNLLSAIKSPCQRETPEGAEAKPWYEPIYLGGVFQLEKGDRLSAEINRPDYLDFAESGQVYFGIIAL

Binder | IC50 (nM), TNFα blockade assay [1] [nM] | IC50 (nM), TNFα blockade assay [2] [nM] | IC50 (nM), OX40L blockade assay [3] [nM]
이중 특이성 항체 02C09-TNFαi LC (bispecific antibody) heavy: QMQLVQSGGGLVKPGGSLRVSCAASGFTFNYAWMSWVRQAPGKGLEWVGRIKGEPDGGTTEYADSVKGRFTISRDNSKNTLYLQMNSLRAEDTAVYYCVSRRGLDVWGQGTTVTVSSASTKGPSVFPLAPCSRSTSESTAALGCLVKDYFPEPVTVSWNSGALTSGVHTFPAVLQSSGLYSLSSVVTVPSSSLGTKTYTCNVDHKPSNTKVDKRV[letters of human IgG4 Fc with S228P (EU numbers) not shown] light: not shown | 0.058 |  | 
이중 특이성 항체 I3F07-TNFαi LC (bispecific antibody) heavy: QIQLAQSGAELVKPGASVKLSCKASGFTFPDYWMHWVKQRPGQGLEWIGEIDPPNGRTNYNEKFKSKATLTVDSSSNTAYMQLSRLTSEDSAVYYCARGIYYVDYWGQGTTLTVSSASTKGPSVFPLAPCSRSTSESTAALGCLVKDYFPEPVTVSWNSGALTSGVHTFPAVLQSSGLYSLSSVVTVPSSSLGTKTYTCNVDHKPSNTKVDKRV[letters of human IgG4 Fc with S228P (EU numbers) not shown] light: not shown |  | 0.077 | 0.94
